Assay results from paper PMC4336329 (PLoS ONE, 2015).
Among all 310,000 compounds or so, about 14,000 (4.5%) showed an effect of 50% or more. The effect is printed as a negative number. Some of the results follow.

biological target: human ether-à-go-go-related gene (hERG) potassium channel (human, UniProt Q12809); test: primary screen, population patch clamp on CHO cells stably expressing hERG
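Further: peak tail current of the secondary pulse compared with the same well before compound.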

Sequence of human ether-à-go-go-related gene (hERG) potassium channel (Q12809 whole entry, looked up): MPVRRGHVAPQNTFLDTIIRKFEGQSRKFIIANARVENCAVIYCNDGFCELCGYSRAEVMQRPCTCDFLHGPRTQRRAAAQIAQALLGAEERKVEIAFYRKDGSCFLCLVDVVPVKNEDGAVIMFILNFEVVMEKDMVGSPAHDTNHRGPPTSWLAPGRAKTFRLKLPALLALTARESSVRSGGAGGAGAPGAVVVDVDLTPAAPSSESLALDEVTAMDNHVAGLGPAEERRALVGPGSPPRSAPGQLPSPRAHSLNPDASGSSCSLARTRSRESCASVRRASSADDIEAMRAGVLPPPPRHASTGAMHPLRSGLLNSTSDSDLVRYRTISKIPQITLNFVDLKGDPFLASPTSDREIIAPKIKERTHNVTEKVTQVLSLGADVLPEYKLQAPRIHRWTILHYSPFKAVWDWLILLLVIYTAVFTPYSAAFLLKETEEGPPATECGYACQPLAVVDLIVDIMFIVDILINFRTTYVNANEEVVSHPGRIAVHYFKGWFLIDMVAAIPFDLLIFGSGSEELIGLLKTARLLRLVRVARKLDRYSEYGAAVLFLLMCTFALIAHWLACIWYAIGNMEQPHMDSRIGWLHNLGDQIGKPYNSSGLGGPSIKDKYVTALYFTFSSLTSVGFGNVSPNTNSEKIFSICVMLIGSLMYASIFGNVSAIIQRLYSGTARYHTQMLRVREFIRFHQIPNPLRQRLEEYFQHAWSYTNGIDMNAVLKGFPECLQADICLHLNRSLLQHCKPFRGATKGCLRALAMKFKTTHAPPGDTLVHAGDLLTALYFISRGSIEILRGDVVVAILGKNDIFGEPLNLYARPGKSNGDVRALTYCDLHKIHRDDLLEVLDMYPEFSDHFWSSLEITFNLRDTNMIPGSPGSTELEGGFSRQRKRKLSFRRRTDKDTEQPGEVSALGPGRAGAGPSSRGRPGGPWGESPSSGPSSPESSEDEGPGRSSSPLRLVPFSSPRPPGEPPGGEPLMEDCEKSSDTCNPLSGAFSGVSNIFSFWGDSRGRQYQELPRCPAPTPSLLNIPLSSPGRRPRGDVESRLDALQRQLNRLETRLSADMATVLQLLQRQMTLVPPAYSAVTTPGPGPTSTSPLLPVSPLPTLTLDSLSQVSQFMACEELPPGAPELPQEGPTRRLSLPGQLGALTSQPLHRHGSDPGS

SMILES | hERG current change (%, negative = inhibition) at 10uM [%]
CCOC(=O)c1cc(C(C)=O)c(=O)n(C)c1N | 16.7
CCN(CC)C1=N/C(=C\c2ccco2)C(=O)N1c1ccccc1 | -6.68
CCCc1nnc(SCC(=O)N2CCCC(C)C2)n1CC1CCCO1 (stereo not drawn) | 14.1
Cc1cccc(NP(=O)(Oc2ccccc2)Oc2ccccc2)c1C | -16.9
Cc1nc(NC(=O)c2cc3c(C)nn(-c4ccccc4)c3s2)sc1C(=O)Nc1ccccc1 | 12.3
COc1cc(C(=O)N(Cc2ccccn2)CC2CCCO2)cc(OC)c1OC.Cl (stereo not drawn) | -11.1
Cc1ccc(C(=O)OCC(=O)N2CCc3ccccc32)cc1 | 14.7
c1ccc(OCCOCCSc2ncccn2)cc1 | 1.32
O=C(NCCN1C(=O)S/C(=C\c2ccc(F)cc2)C1=O)c1cccc(S(=O)(=O)N2CCOCC2)c1 | -3.04
CO/N=C/CC(=O)c1cnc(-c2ccccc2)s1 | 9.2
Cc1nc2ncnn2c(C)c1CCC(=O)Oc1ccccc1 | -5.02
CNC(=O)COC(=O)/C=C/c1cccs1 | 13.6
CCN(CCn1cccn1)C(=O)c1cc(COc2c(F)cccc2F)on1 | 0.76
CC(C)c1ccc(/C=N/NC(=O)c2cccc(S(=O)(=O)N3CCOCC3)c2)cc1 | 10.1
Cc1ccc(N=C2NC(=O)c3cccc([N+](=O)[O-])c32)cc1 | -16.9
CCCC(CCC(=O)Nc1ccn(-c2ccccc2)n1)C(=O)O (stereo not drawn) | 4.5
COc1ccc(-n2nc3c(c2NC(=O)c2cc4ccccc4o2)CS(=O)(=O)C3)cc1 | -12.4
O=C(/C=C/c1cccs1)c1cc(Br)ccc1OC(=O)N1CCOCC1 | -38
CCOC(=O)/C(C#N)=C1/C=C(C)NC(c2ccccc2O)=N1 | 11.7

SMILES | hERG current change (%, negative = inhibition) at 10uM [%]
Cc1cc(C)nc(NS(=O)(=O)c2ccc(N/C=C/C(=O)c3ccc(Cl)cc3)cc2)n1 | -7.81
Cc1csc(NC(=O)C2CSC3(C)CCC(=O)N23)n1 (stereo not drawn) | 2.32
COc1cc(C(=S)N2CCOCC2)ccc1OC(=O)c1ccc(Br)cc1 | 12.7
CC(=O)Nc1cccc(NS(=O)(=O)c2cn(C)c(=O)n(C)c2=O)c1 | -8.88
CCOc1ccccc1NC(=O)C(=O)N/N=C/c1ccc([N+](=O)[O-])cc1 | -13.2
COc1ccc(NC(=O)CN(C)C(=O)CN2C(=O)c3ccc([N+](=O)[O-])cc3C2=O)cc1 | 3.33
N#Cc1cc(Cl)c(NCC2CCCO2)cc1C#N (stereo not drawn) | 7.45
O=C(Nc1ccccc1C(=O)NC1CCCCC1)c1ccccc1 | -11.2
CN1CCN(c2ccc(S(=O)(=O)N3CCCCC3)cc2NC(=O)Cc2ccc(Cl)cc2)CC1 | -72
COc1ccc(OCCCC(=O)OCC(=O)Nc2nnc(-c3ccccc3)o2)cc1 | -12.2
COc1ccc(N(Cc2cc3cc(OC)ccc3[nH]c2=O)S(C)(=O)=O)cc1 | -0.157
COc1cccc(C2Cc3ccccc3C(=O)O2)c1 (stereo not drawn) | 8.03
O=C(NCc1ccncc1)c1c(F)c(F)c(F)c(F)c1F | -4.03
Cc1nc(SCc2ccc(Cl)c(Cl)c2)ncc1C(=O)O | 5.06
COc1ccc(-c2nc(-c3ccc(NC(=O)c4ccc(Br)o4)cc3)no2)cc1OC | 14.1
CC(C)CC1(C)N=C(c2ccccc2)C(=S)N1 (stereo not drawn) | 8.32
Cc1ccc(C2N(c3ccc(Cl)cc3)C(=O)N3CCCN23)cc1 (stereo not drawn) | -1.05
COc1cccc(NC(=O)CC(=O)c2ccc([N+](=O)[O-])cc2)c1 | 0.117
O=C1N(c2ccccc2)C(=Nc2ccccc2)SC12CC2 | 3.07

SMILES | hERG current change (%, negative = inhibition) at 10uM [%]
COCc1cccc(C(=O)NC(c2ccccc2)c2ccccc2)c1 | -27.2
CCCn1c(C)cc(/C=C(\C#N)C(=O)OCC(=O)NC(=O)NC(C)(C)C)c1C | 5.81
O=C(CN1CCN(Cc2ccc3c(c2)OCO3)CC1)c1c[nH]c2ccccc12 | -63.5
O=C(COC(=O)c1cccc(Cl)c1Cl)NCc1cccs1 | 5.46
CC(C)c1ccc(-n2ccnc2SCC(=O)O)cc1 | 11.2
Cc1cccc(N2CCN(CC(=O)NCC3CCCCC3)CC2)c1C.Cl | -6.63
Cc1ccc(C)c(C(=O)CC2(O)C(=O)N(C)c3ccccc32)c1 (stereo not drawn) | 8.85
COC(=O)CSc1nnc(SCc2ccccc2)s1 | 7.89
CC(C)N1C(=O)CCC1C(=O)NCCc1ccc(Cl)cc1 (stereo not drawn) | 1.9
COc1ccccc1NS(=O)(=O)c1ccc(C(=O)NCC(c2ccco2)N(C)C)cc1 (stereo not drawn) | -0.744
CCOC(=O)/C=C/C(=O)OCC(=O)Nc1cccc(Br)c1 | 0.304
N#CCC(=O)Nc1ccc(C(=O)OCC(=O)Nc2cccc(C(F)(F)F)c2)cc1 | 3.19
COCc1c(C#N)c(NCc2cc(OC)c(OC)c(OC)c2)nc(C)c1[N+](=O)[O-] | -12.2
CCN(CC)S(=O)(=O)c1ccc(Cl)c(C(=O)NCC2CCCO2)c1 (stereo not drawn) | 10.3
O=C(CN1CCN(c2ccccc2)CC1)Nc1ccncc1 | 7.9
Cc1nn(C)cc1C(N)=O | 0.619
O=c1c2cccnc2[nH]c(=S)n1CCCN1CCN(c2ccc(F)cc2)CC1 | -26.1
CN(C(=O)CSc1ncnc2sc(-c3ccccc3)cc12)C1CCS(=O)(=O)C1 (stereo not drawn) | -15.9
CCOC(=O)[C@@H]1[C@H]2COc3cc(OC)ccc3[C@@H]2N2C(=O)N(c3ccc(Br)cc3)C(=O)[C@]12C | -3.09
